Data as given in PubChem BioAssay AID485294 (National Center for Advancing Translational Sciences (NCATS), 2010).
Screen size: about 370,000 compounds; about 150 (0.041%) were called active. This list was built around the results that the source calls inconclusive (neither active nor inactive); the mix of calls is not that of the screen. Calls come from the whole dose curve; as a rule, active = well fitted inhibition curve with a large enough effect; inconclusive = small, poorly fitted or top-dose-only effect; inactive = flat fitted curve, though single readings scatter. No potency is given beside an inconclusive call; the fits are too rough.
Note: nearly all actives have a fitted effect of over 25% in size.
Potency is the fitted concentration of half-maximal effect; tags give direction and shape of the fitted curve.

The compounds below were run against Beta-lactamase (Escherichia coli (strain K12)) (UniProt P00811) (assay: qHTS Inhibitors of AmpC Beta-Lactamase (assay with detergent)). Details: AmpC hydrolysis of nitrocefin, absorbance 480 nm, 0.01% Triton; series mostly up to 114 µM.
UniProt P00811, sequence (P00811 whole entry, looked up): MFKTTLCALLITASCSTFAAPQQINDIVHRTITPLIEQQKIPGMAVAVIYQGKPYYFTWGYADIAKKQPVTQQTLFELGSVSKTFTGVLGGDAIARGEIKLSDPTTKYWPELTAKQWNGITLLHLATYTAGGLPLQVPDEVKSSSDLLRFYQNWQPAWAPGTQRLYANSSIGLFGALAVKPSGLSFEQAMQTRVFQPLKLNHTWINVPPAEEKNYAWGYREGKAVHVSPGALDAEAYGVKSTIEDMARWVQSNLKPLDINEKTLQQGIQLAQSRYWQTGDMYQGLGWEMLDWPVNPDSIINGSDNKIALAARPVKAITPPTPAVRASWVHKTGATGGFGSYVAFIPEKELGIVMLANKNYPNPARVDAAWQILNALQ
Method in brief: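 20 mM phosphate pH 7.0 + 0.01% (detergent screen) or 0.0001% Triton X-100; 5.3 nM AmpC reagent; cpd preinc 15 min RT; nitrocefin (800 uM stock) to start; A480 q20 s × 4 min; Activity was normalised to no-enzyme and no-compound control wells.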
CCOC(=O)CN1N=C(/C=C/c2ccc(OCC)cc2)CCC1=O was tested, and the Potency was inconclusive [inhibitor, full curve, poor fit]. Cc1cc(C(=O)NN=C2CCCCCC2)c(C)o1 was tested, and the Potency was “inactive”. N#Cc1c(NC(=O)c2ccccc2)sc2c1CCC2 was tested, and the Potency was “inactive”. In the case of CC(C)C(=O)NC(=S)N1CCc2ccccc21, the Potency is reported as “inactive”. In the case of Clc1ccc(OCCn2c(-c3ccco3)nc3ccccc32)cc1, the Potency is reported as “inactive”. For CCN1CCCC1CN(Cc1cc2cc(C)cc(C)c2[nH]c1=O)C(=O)Nc1ccccc1OC (stereo not given), the Potency was inconclusive [inhibitor, partial curve, poor fit]. In the case of CCN(Cc1nc2ccccc2c(=O)[nH]1)Cc1nc2cc(OC)c(OC)cc2c(=O)[nH]1, the Potency is reported as inconclusive [inhibitor, full curve, poor fit]. For CCCN1CCCc2cc(CN(CCCN3CCOCC3)C(=O)Nc3ccc(OCC)cc3)ccc21, the Potency was inconclusive [inhibitor, full curve, poor fit]. Cc1ccc2c(CN3CCN(S(=O)(=O)/C=C/c4ccccc4)CC3)cc(=O)oc2c1 was tested, and the Potency was inconclusive [inhibitor, full curve, poor fit]. With Cc1nnc(SCC(=O)Nc2cc(C(F)(F)F)ccc2N2CCOCC2)o1 the Potency was inconclusive [inhibitor, full curve]. C/C(CC(=O)Nc1ccc(OCc2ccccc2)cc1)=N\NC(=O)C(=O)Nc1cccc(C)c1 was tested, and the Potency was inconclusive [inhibitor, partial curve, poor fit]. For COc1ccc(-n2c(Cc3ccccc3)nnc2SCc2ccc([N+](=O)[O-])cc2)cc1, the Potency was inconclusive [inhibitor, single point]. COc1ccc(C(=O)c2cnc(C(C)C)n2C)cc1 was tested, and the Potency was inconclusive [inhibitor, partial curve, poor fit]. In the case of CCc1ccc(CNCCc2ccc(F)cc2)cc1, the Potency is reported as inconclusive [inhibitor, partial curve]. O=C(CC1(O)C(=O)N(CCc2ccccc2)c2ccccc21)c1ccccn1 (stereo not given) was tested, and the Potency was “inactive”. For CC(=O)O[C@H]1C(=O)[C@@]2(C)C([C@H](OC(=O)c3ccccc3)[C@]3(O)C[C@H](OC(=O)[C@H](O)[C@@H](NC(=O)Cc4ccccc4)c4ccccc4)C(C)=C1C3(C)C)[C@]1(OC(C)=O)CO[C@@H]1C[C@@H]2O (stereo not given in full), the Potency was inconclusive [inhibitor, partial curve]. For Cc1ccccc1-n1nnnc1SCC(=O)c1c(N)n(C2CC2)c(=O)[nH]c1=O, the Potency was inconclusive [inhibitor, full curve]. In the case of Cc1cc(C)nc(NS(=O)(=O)c2ccc(NC(=O)c3ccco3)cc2)n1, the Potency is reported as “inactive”. In the case of CCc1nnc(NC(=O)c2ccc(Cl)nc2)s1, the Potency is reported as inconclusive [inhibitor, single point]. For O=C(NCc1ccc2c(c1)OCO2)c1cccnc1, the Potency was inconclusive [inhibitor, partial curve]. In the case of CCC1SC(C)C/C(=N/NC(N)=O)C1C (stereo not given), the Potency is reported as “inactive”. For CCOCCc1nn2c(=O)cc(COC(=O)c3ccc(NC(=O)c4ccc(F)cc4)cc3)nc2s1, the Potency was inconclusive [inhibitor, single point]. In the case of O=C(Nc1ccccc1Cl)c1ccc(COc2ccc3c(c2)CCC3)cc1, the Potency is reported as “inactive”. c1ccc(Cc2cc(-c3ccccc3)on2)cc1 was tested, and the Potency was “inactive”. For COc1ccc(C(=O)NCC(=O)N/N=C/c2cn[nH]c2-c2ccccc2)cc1, the Potency was inconclusive [inhibitor, partial curve, poor fit]. COc1cc(NC(=O)Cn2c(=O)n(CC3CCCO3)c(=O)c3cc(OC)c(OC)cc32)cc(OC)c1 (stereo not given) was tested, and the Potency was inconclusive [inhibitor, partial curve, poor fit]. With COc1ccc(C(CNC(=O)C(C)Oc2ccc(Br)cc2)N2CCOCC2)cc1 (stereo not given) the Potency was inconclusive [inhibitor, full curve, poor fit]. In the case of CCCCC(c1nnnn1C(C)C)N1CCN(C(=O)c2ccco2)CC1 (stereo not given), the Potency is reported as inconclusive [inhibitor, partial curve, poor fit]. CCCCN(C)C(=O)c1nc2ccccn2c1CNC1CCC1 was tested, and the Potency was inconclusive [inhibitor, partial curve]. With C=CCSc1nnc2c(n1)OC=Nc1ccccc1-2 the Potency was inconclusive [inhibitor, full curve, poor fit]. For Cn1c(=O)c2c(nc(NC(Cc3ccccc3)C(=O)O)n2Cc2ccccc2)n(C)c1=O (stereo not given), the Potency was inconclusive [inhibitor, partial curve, poor fit]. Cc1c(NC(=O)CNCc2ccc3c(c2)OCO3)c(=O)n(-c2ccccc2)n1C was tested, and the Potency was inconclusive [inhibitor, full curve, poor fit]. For O=C(CN1CCOCC1)Nc1ccccc1Sc1ccccc1, the Potency was “inactive”. c1ccc(C2NCc3ccccc3-n3cccc32)cc1 (stereo not given) was tested, and the Potency was inconclusive [inhibitor, full curve, poor fit]. In the case of CN(C)Cc1ccccc1COc1ccccc1, the Potency is reported as inconclusive [inhibitor, full curve, poor fit]. With COc1ccccc1CNS(=O)(=O)c1cc(-c2cc(C)no2)ccc1C the Potency was inconclusive [inhibitor, partial curve, poor fit]. With COc1cc(NC(=O)c2csc3c2CCCC3)ncn1 the Potency was inconclusive [inhibitor, full curve, poor fit]. With COc1ccc(Br)cc1CNC(=O)Cc1c(C(=O)O)[nH]c2ccc(Cl)cc12 the Potency was inconclusive [inhibitor, full curve, poor fit]. With Cc1cc(NC(=O)C(=O)c2cn(C)c3ccccc23)no1 the Potency was “inactive”. For CC(C)(C)SCCNC(=O)CN(c1ccc(F)cc1)S(C)(=O)=O, the Potency was inconclusive [inhibitor, full curve, poor fit]. For COC(=O)c1ccc(NC(=O)c2nn(C)c3c2COc2ccccc2-3)cc1, the Potency was “inactive”. In the case of CCOc1cc2[nH]c(=S)n(Cc3ccc(C(=O)O)cc3)c(=O)c2cc1OCC, the Potency is reported as “inactive”. With Cc1ccc(NC(=O)Cc2nc(CSc3nnc(-c4ccc5c(c4)OCO5)o3)cs2)cc1 the Potency was inconclusive [inhibitor, partial curve, poor fit]. With c1ccc(-c2noc(-c3ccncc3)n2)nc1 the Potency was inconclusive [inhibitor, full curve]. For CCc1noc(C)c1C(=O)N(C)CC(=O)Nc1cccc(OC)c1, the Potency was inconclusive [inhibitor, single point]. In the case of CCCCCCCn1c(=N)n(CC(=O)c2ccco2)c2ccccc21, the Potency is reported as “inactive”. For O=C1OC(N2C(=O)CC[C@H]2C(=O)NCC2CCCO2)c2ccccc21 (stereo not given in full), the Potency was inconclusive [inhibitor, full curve, poor fit]. With CCOP(=O)(OCC)C(NC(=O)Nc1ccc(Cl)c(Cl)c1)C(N)=O (stereo not given) the Potency was inconclusive [inhibitor, partial curve]. Cc1c(OC(C)C(=O)NCC2CCC(C(=O)O)CC2)ccc2c3c(c(=O)oc12)CCCC3 (stereo not given) was tested, and the Potency was inconclusive [inhibitor, single point]. In the case of COc1cccc(N2CC(C(=O)Nc3nnc(SCC(=O)Nc4ccc(NC(C)=O)cc4)s3)CC2=O)c1 (stereo not given), the Potency is reported as inconclusive [inhibitor, full curve, poor fit]. With O=C(COC(=O)c1cccc(S(=O)(=O)N2CCc3ccccc32)c1)NCc1ccco1 the Potency was “inactive”. With Cc1cc(=O)[nH]c(N/N=C/c2c(O)n(-c3ccccc3)c(=O)c3ccccc23)n1 the Potency was inconclusive [inhibitor, single point]. In the case of Cc1csc(CN(C)C(=O)C2CCC(=O)N(CCCc3ccccc3)C2)n1 (stereo not given), the Potency is reported as “inactive”. With COc1ccc(C(CNC(=O)c2ccc(S(=O)(=O)N(C)C)cc2)N2CCCCC2)cc1 (stereo not given) the Potency was inconclusive [inhibitor, single point]. CCOc1ccc(NC(=O)N(CCCN2CCOCC2)Cc2cccnc2)cc1 was tested, and the Potency was inconclusive [inhibitor, full curve, poor fit]. For COc1ccc(C(=O)COC(=O)c2ccc(Cl)nc2)cc1OC, the Potency was inconclusive [inhibitor, partial curve, poor fit]. For CCCCn1c(=N)n(CC(=O)C(C)(C)C)c2ccccc21, the Potency was inconclusive [inhibitor, full curve, poor fit]. For C=CCn1c(SCn2nnc3ccccc3c2=O)nnc1-c1ccc(Br)cc1, the Potency was inconclusive [inhibitor, full curve]. Cc1cccc(-c2nnc(SCC(=O)Nc3cc(C)on3)n2C)c1 was tested, and the Potency was “inactive”. Cc1c(Cl)cccc1NC(=O)CCC(=O)N/N=C/c1ccc[nH]1 was tested, and the Potency was inconclusive [inhibitor, single point]. In the case of C/C(=C\C(=O)c1ccc(F)cc1)NCc1ccc2c(c1)OCO2, the Potency is reported as inconclusive [inhibitor, full curve, poor fit]. For O=C(COc1ccccc1)NCC(c1ccco1)N1CCN(c2ccccc2)CC1 (stereo not given), the Potency was inconclusive [inhibitor, partial curve, poor fit]. O=C(/C=C/c1ccc(OC(F)F)cc1)OCC(=O)N1CCN(C(=O)c2ccco2)CC1 was tested, and the Potency was “inactive”. For CCOC(=O)/C=C/C(=O)Nc1ccc(S(=O)(=O)N2CCc3ccccc32)cc1, the Potency was “inactive”. With O=C(CCC(=O)OCC(=O)c1ccccc1)NC1CCCCC1 the Potency was inconclusive [inhibitor, full curve, poor fit].
